Source: publication PMC4336329 (PLoS ONE, 2015)
Among all 310,000 compounds or so, about 14,000 (4.5%) showed an effect of 50% or more. Effects have a minus sign here. The list shows a part of the results.

Target: human ether-à-go-go-related gene (hERG) potassium channel (human, UniProt Q12809)
Experiment: primary screen, population patch clamp on CHO cells stably expressing hERG
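Also: peak tail current of the secondary pulse compared with the same well before compound.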

human ether-à-go-go-related gene (hERG) potassium channel, sequence (Q12809 whole entry, looked up): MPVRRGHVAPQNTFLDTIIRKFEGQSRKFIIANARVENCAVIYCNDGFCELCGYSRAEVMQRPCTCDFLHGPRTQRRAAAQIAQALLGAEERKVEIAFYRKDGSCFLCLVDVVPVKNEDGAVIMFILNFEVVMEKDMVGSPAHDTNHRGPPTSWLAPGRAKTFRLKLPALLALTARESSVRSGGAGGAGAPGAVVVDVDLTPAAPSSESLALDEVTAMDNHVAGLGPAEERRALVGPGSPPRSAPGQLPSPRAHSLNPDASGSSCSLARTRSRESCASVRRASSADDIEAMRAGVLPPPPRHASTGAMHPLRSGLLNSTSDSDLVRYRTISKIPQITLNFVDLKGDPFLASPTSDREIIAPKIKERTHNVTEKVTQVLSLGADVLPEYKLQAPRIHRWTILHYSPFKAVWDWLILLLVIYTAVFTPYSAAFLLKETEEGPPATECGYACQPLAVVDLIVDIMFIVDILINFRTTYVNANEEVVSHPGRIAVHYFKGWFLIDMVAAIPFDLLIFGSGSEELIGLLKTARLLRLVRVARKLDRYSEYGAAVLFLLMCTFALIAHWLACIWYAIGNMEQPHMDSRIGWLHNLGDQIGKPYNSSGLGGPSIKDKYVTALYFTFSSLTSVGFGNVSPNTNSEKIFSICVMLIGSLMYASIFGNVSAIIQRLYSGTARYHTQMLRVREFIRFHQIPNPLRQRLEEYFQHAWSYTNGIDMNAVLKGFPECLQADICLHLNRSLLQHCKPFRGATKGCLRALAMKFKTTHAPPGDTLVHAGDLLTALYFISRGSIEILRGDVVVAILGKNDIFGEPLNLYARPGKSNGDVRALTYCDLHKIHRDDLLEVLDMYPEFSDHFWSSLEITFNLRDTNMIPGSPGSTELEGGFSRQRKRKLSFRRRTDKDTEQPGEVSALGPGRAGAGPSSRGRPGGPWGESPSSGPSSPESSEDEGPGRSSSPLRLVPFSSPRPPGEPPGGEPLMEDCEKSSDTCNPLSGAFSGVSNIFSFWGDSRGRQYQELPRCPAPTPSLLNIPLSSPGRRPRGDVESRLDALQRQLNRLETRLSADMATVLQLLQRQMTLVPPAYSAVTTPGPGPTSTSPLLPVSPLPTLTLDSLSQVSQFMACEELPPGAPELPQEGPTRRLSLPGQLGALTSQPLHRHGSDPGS

Compound | hERG current change (%, negative = inhibition) at 10uM
COc1ccc(N(CC(=O)Nc2ccc(F)cc2)S(=O)(=O)c2ccccc2[N+](=O)[O-])c(OC)c1 | -12.2%
O=C(CSc1nnc(-c2ccccc2Br)o1)N1CCc2ccccc2C1 | -19.9%
Nc1nnc(CC(=O)N/N=C/c2ccc(-c3ccccc3)o2)s1 | -11.4%
COC(=O)Cc1ccc(NC(=S)NCCCO)cc1 | -4%
O=C(CN1CCCCCC1)N/N=C/c1cccc(Cl)c1Cl | -38.5%
CCOc1cc(C(=O)N2CCC(CC3CC(c4ccccc4)=NO3)(C(=O)NCc3ccc(OC)cc3)CC2)cc(OCC)c1OCC (centres unmarked) | -8.88%
COCCNC(=S)N1CCN(C(=O)C(=O)Nc2ccc(C(=O)OC)cc2)CC1 | -11.4%
CC1(C)CC(NC(=O)C(F)(F)F)CC(C)(C)N1OC(=O)c1ccco1 | 1.13%
COc1ccc(-n2c(O)c(C=NCCN3CCN(C(C)=O)CC3)c(=O)[nH]c2=S)cc1 | 20.4%
COc1cc(CNn2nnnc2N)ccc1OCC(=O)NC(C)(C)C | 4%
Cc1ccccc1NC(=O)CCC(=O)N/N=C/c1cc([N+](=O)[O-])ccc1O | -17.5%
CCOc1cccc2cc(C(N)=O)c(=NCc3ccccc3)oc12 | -8.35%
O=C(CCCn1cc([N+](=O)[O-])cn1)NC1CCCCCC1 | -3.97%
CCN(Cc1ccccc1)S(=O)(=O)c1csc(C(N)=O)c1 | -15.6%
CC(C)CC1NC(=O)N(Cc2nc3ccccc3s2)C1=O (centres unmarked) | -32.5%
O=C(NCc1ccco1)c1ccc(Cn2c(=O)c3ccccc3n(Cc3cccc(F)c3)c2=O)cc1 | 8.71%
COc1cccc(NC(=O)CN(C)C(=O)c2cc(-c3ccccc3)nc3ccccc23)c1 | 12.7%
Cc1cc(N/C(=N\S(=O)(=O)c2ccc(Cl)cc2)c2ccc(F)cc2)no1 | -25.5%
COc1cc(SC)ccc1C(=O)NCCN1CCOCC1 | 7.73%
Cc1ccc2nc(Nc3ccccc3O)nc(-c3ccccc3)c2c1 | 14.3%
CCOc1ncccc1C(=O)NCc1ccccc1 | 9.58%
O=c1sc(Nc2ccccc2)nc2ccccc12 | 23.5%

Compound | hERG current change (%, negative = inhibition) at 10uM
CCOC(=O)C(Oc1ccc2c(-c3ccccc3)cc(=O)oc2c1)c1ccccc1 (centres unmarked) | -32.6%
Cc1cc(C)c(NC(=S)N(CCc2ccncc2)C(C)C)c(C)c1 | -8.82%
CC(C)CN1CCN(C(=O)CCc2nnc(Cc3c[nH]c4ccccc34)o2)[C@@H](C)C1=O | 14.6%
CCCCS(=O)(=O)Nc1ccc2cn[nH]c2c1 | -5.57%
CC1=CCC2C(=O)N(CCc3c[nH]c4ccccc34)C(=O)C2C1 (centres unmarked) | -9.31%
CN(C)CCNC(=S)Nc1ccc(Cl)cc1 | 0.163%
CCc1ccccc1N(C)S(=O)(=O)c1cc(-c2cc(C)no2)ccc1OC | 17.1%
Cc1ccc(-n2ncc3c2CC(C)(C)CC3NC(=O)CCN2CCCCC2=O)cc1 (centres unmarked) | 3.16%
CN(C(=O)COC(=O)C1CSC2(C)CCC(=O)N12)c1ccccc1 (centres unmarked) | -3.89%
O=C(COc1ccc([N+](=O)[O-])cc1)Nc1ccc(C(=O)Nc2ccccc2C(=O)O)cc1 | -30.2%
Cc1cc(=O)oc2cc(NC(=O)c3ccnn3C)ccc12 | 23.5%
CCN(CC)S(=O)(=O)c1ccc(N2CCCC2)c(NC(=O)c2ccncc2)c1 | -22.6%
COc1ccc(-n2c3c(c(=O)[nH]c2=O)C(NS(=O)(=O)c2ccc(Cl)cc2)(C(F)(F)F)C(=O)N3)cc1 (centres unmarked) | -2.76%
CC(C)N(C(=O)/C=C/c1cccc([N+](=O)[O-])c1)C(C)C | -13.8%
O=C(COc1ccc(Cl)cc1)NCc1nnc2c3ccccc3c(-c3ccccc3)nn12 | -66.9%
COc1ccc(NC(=O)c2cccc(S(=O)(=O)Nc3ccc(Br)cc3)c2)cn1 | -2.46%
O=C(COC(=O)CNC(=O)c1ccccc1)Nc1ccccc1Cl | 13.3%
CCC(=O)N1CCc2cc(Br)cc(S(=O)(=O)NCc3ccco3)c21 | -33.7%
CCOc1ccc(C(=O)N2CCCC(c3nc(-c4cccs4)no3)C2)cc1 (centres unmarked) | -46.9%
Cc1ccc(Cc2cnc(NC(=O)CN3CCOCC3)s2)cc1Cl | -23.9%
Cn1c(=O)c2c(nc(Br)n2CCCc2ccccc2)n(C)c1=O | -9.05%
COc1ccc(C(C)(C)C)cc1NC(=O)c1ccoc1C | -19.8%

Compound | hERG current change (%, negative = inhibition) at 10uM
Cc1cc(C[n+]2cc(Cl)ccc2N)c2ncccc2c1.[Br-] | -48.1%
NS(=O)(=O)c1ccc(NCc2cc(Cl)ccc2OCc2ccc(F)cc2)cc1 | 3.36%
O=C(CSc1ccc(Cl)cc1)N1CCC(c2nc3ccccc3s2)CC1 | -59.7%
NC1=NC(=O)/C(=C/c2ccc(Cl)cc2Cl)S1 | 13.4%
Cn1c(N)c(C(=O)COC(=O)CCC2CCCCC2)c(=O)n(C)c1=O | -73.6%
CCCS(=O)(=O)N1CCN(Cc2ccc([N+](=O)[O-])cc2)CC1.O=C(O)C(=O)O | -51.9%
CC(=O)OC[C@H]1O[C@@H](O/N=C/[C@@H](C)[C@H](OCc2ccccc2)C(C)C)[C@H](OC(C)=O)[C@@H](OC(C)=O)[C@@H]1OC(C)=O | -22.4%
COC(=O)C1=C(C)NC(=O)NC1c1ccc(OC(=O)c2ccco2)cc1 (centres unmarked) | -1.19%
CCN1CC(c2ccccc2)C(c2ccc(Cl)cc2)=N1 (centres unmarked) | -8.97%
CC(C)c1nnc(SCC(=O)NCc2ccc3c(c2)OCO3)n1C | -5.15%
CCCCc1ccc(NC(=O)CSC2=NN3CCCC(=O)N=C3S2)cc1 | 2.28%
CCC(=O)Nc1nonc1-c1nc2ccccc2n1Cc1cccc2ccccc12 | 3.1%
Cc1cc(=O)[nH]c(SCC(=O)C23CC4CC(CC(C4)C2)C3)c1C#N | 12.5%
CN(C(=O)COC(=O)c1ccc(Cl)cc1N)C1CCCCC1 | 12.3%
N/C(=N\OC(=O)c1cccc(Cn2cc(C(F)(F)F)ccc2=O)c1)c1ccccc1 | -2.75%
COc1ccccc1NS(=O)(=O)c1ccc(Br)s1 | -32.1%
Fc1ccc(-c2cc(-c3cccs3)cc(-c3ccccc3)n2)cc1 | 11.4%
COc1ccc(C(=O)NC2CC2)cc1OC1CCN(Cc2ccc(F)cc2)CC1 | -81.8%
O=C(C1=C(O)C(=O)N(CCc2ccccc2)C1c1cccnc1)c1ccco1 (centres unmarked) | 1.06%
CCC(=O)c1ccc(OCC(=O)NCC2COc3ccccc3O2)cc1 (centres unmarked) | -25.5%
CCN(CC)S(=O)(=O)c1cc(C(=O)OCC(=O)Nc2cccc(C)c2C)ccc1F | -10.3%
CN(c1cccc(NC(=O)CCSc2ccccc2)c1)S(C)(=O)=O | -28.8%

Compound | hERG current change (%, negative = inhibition) at 10uM
COc1cccc(OC)c1C(=O)n1nc(C)cc1C | 9.59%
CC1(C)SC2c3ccccc3C(=O)N2[C@@H]1C(=O)NCc1ccco1 (some centres unmarked) | 8.48%
O=C1c2ccccc2C(Nc2ccc3c(c2)OCCO3)N1c1ccccn1 (centres unmarked) | -6.4%
Cc1cc(C)c(C(=O)COC(=O)CCNS(=O)(=O)c2c(Cl)cccc2Cl)cc1C | 13%
CC1(C)S[C@@H]2[C@H](N=CN3CCCCCC3)C(=O)N2[C@H]1C(=O)O | 6.15%
CCCCC(CC(O)COCCC)c1n[nH]c(=S)n1-c1ccccc1 (centres unmarked) | 6.88%
COC(=O)CC1=C(C(=O)OC)C(c2ccc3c(c2Cl)OCO3)C(C#N)=C(N)O1 (centres unmarked) | -24.7%
CC1CCCCN1Cc1c(O)ccc2c(=O)c(-c3ccc(Cl)cc3Cl)coc12 (centres unmarked) | -60.7%
Cc1ccccc1CC1(CO)CCCN(Cc2ccn[nH]2)C1 (centres unmarked) | 1.25%
CCOC(=O)c1ccc(-c2cc(C)no2)[nH]1 | 11.3%
Cc1ccc(NC(=O)Cn2c(=O)cnc3ccccc32)cc1S(=O)(=O)N1CCOCC1 | -30.4%
O=C(CCCc1nc(-c2ccccc2Cl)no1)NC1CCCCC1 | 1.18%
O=C(COc1cccc(Cl)c1)NNC(=S)Nc1ccccc1 | 15.8%
CCCC(=O)NC1CCCc2c1cnn2-c1ccc(C)c(C)c1 (centres unmarked) | -72%
O=S1(=O)CC(O)C(Nc2ccccc2Cl)C1 (centres unmarked) | 3.34%
CCn1c(=O)c(=O)n(CC)c2cc(S(=O)(=O)Nc3cccc(OC)c3)ccc21 | 0.962%
O=C(NCCCn1ccnc1)c1cc2cc([N+](=O)[O-])ccc2oc1=O | -36.6%
Cn1c(=O)c2c(nc(N3CCCCCC3)n2Cc2cccc3ccccc23)n(C)c1=O | 12.9%
COc1ccc(CCNCc2sccc2C)cc1.Cl | -19.9%
CCC(C)NC(=O)CS(=O)Cc1nc(-c2cccc(C)c2)oc1C (centres unmarked) | 12.1%
